The values that follow come from the RNAGym collection of RNA variant scans (doi:10.7554/elife.90254).

The source gives no read counts; variants with many changes may rest on few reads.

B1: OR4K15 (parent)
chain: GUUAACGGUCAUAGGCCAUGGAAACUAGGAGCACCAUUUCGCUGCCAGUGAAGAAAUGAACAAAGAAAAUCUGGGCCAGGCAGGCAUCAAAAGAAAUAGUCUUGCGCUCAACCAGAAAGUCUGUAAUCAUUUUAAGGGUA

The variants in this data set derive from B1. In words: self-cleavage, relative activity (ratio to wild type); higher = more cleavage; in vitro, sequencing; the parent is a self-cleaving ribozyme.
Turning to GUUAACGGUCAUGGGCCGUGGAAACUAGGGGCACCAUUUCGCUGCCAGUGAAGAAGUGAACAAAGAAAAUCUGGGCCAGGCAGGCACCAAAAGGAAUAGUCUUGCGCUCAACCAGAAAGUCUGUAAUCAUUUUAAGGGUA, the self-cleavage is 0.58.

Regarding GUUAACGGUCACAGGCCAUGGAAACUAGGAGCACCAUUUCGCUGCCAGUGAAGAAAUGAACAAAGAAAAUCUGGGCCAGGCAGGCAUCAAAAGAAAUAGUCCUGCGCUCGACCAGAAAGUCUGUAAGCAUUUUAAGGGUA, the self-cleavage came to 0.09.

As to GUUAACGGUCACAGGCCAUGGAAACUAGGAGCACCAUUACGCUGCCAGUGAAGAAAUGAACAAAGAAAAUCUGGGCCAGGCAGGCAUCAAAAGGAAUAGUCUUGCGCUCAACCAGAAAGUCUGUAAUCACUAUAAGGGUA, the self-cleavage worked out at 1.95.

GUUAACGGUCACAGGCCAUGGAAACUAGGAGCACCAUUUCGCAGCCAGUGAAGAAAUGAACAAAGAAAAUCUGGGCCAGGCAGGCAUCAAAAGAAAUAGUCUUGCGCUCAUCCAGAAAGUCUGUAAUCACUUUAAGGGUA: the self-cleavage is 0.03.

Regarding GUUAACGGUCACAGGCCAUGGAAACUAGGAGCACCAUUUCGCUGCCAGCGAAGGAAUGAACAGAGAAAAUCUGGGCCAGGCAGGCAUCAAAAGAAAUAGUCUUGCGCUCAACCAGAAAGUCUGUAAUCAUCUUAAGGGUA, the self-cleavage was 0.81.

Regarding GUUAACGGUCAUCGGCCAUGGAAACUAGGAGCACCGUUUCGCUGCCGGUGAAGAAAUGAACAAAGAGAAUCUGGGCCAGGCAGGCAUCAAAAGAAAUAGUCUUGCGCUCAACCAGAAAGUCUGUAAUCAUUUUAAGGGUA, the self-cleavage amounted to 0.55.

As to GUUAACGGUCAGAGGCCAUGGAAACUAGGAGCACCAUUUCGCUGCCAGUGAAGAAAUGAACAAAGAGAACCUGGGCCAGGCAGGCAUCAAAAGAAAUAGUCUUGCGCUCUACCAGAAAGUCUGUAAUCAUUUUAAGGGUA, the self-cleavage was determined as 1.21.

As for GUUAACGGUCAGAGGCCAUGGAAACUAGGAGCACCAUUUCGCUGCCAGUGAAGAAAUGAACAAAGAAAAUCUGGGCCAGGCAGGCAUCAAAAGAAAUGGCCUUGCGCUCAACCAGAAAGUCUGUAAUCAUUUUAAGGGUA, the self-cleavage worked out at 1.15.

In the case of GUUAACGGUCACAGGCCAUGGAAACUAGGAGCACCAUUUCGCUGCCAAUGAAGAAAUGAACAAAGAAAAUCUGGGCCAGGCAGGCAUCAAAAGAAAUAGUCUUGCGCUCAACCAGAAGGUCUGUAAUCAUUUUAAGGGUA, the self-cleavage is 0.77.

Turning to GUUAACGGUCAGAGGCCAUGGAAACUAGGAGCACCAUUUCGCUGCCAGUGAAGAAAUGAACAGAGAAAAUCUGGGCCAGGCAGGCAUCAAAAGAAAUAGUCUUGCGCUCAACCAGAAAGUCUGUAACCAUUUUAAGGGUA, the self-cleavage was 0.51.

As to GUUAACGGUCACAGGCCAUGGAAACUAGGAGCACCAUUUCGCUGCCAGUGAAGAAAUGAACAAAGAAAAUCUGGGCCAGGCAGGCAUCAAAAGAAAUAGGCUUGCGCUCAACCAGAAAGUCUGUAAUCAUUCUAAGGGUA, the self-cleavage worked out at 1.28.

In the case of GUUAACGGUCACAGGCCAUGGAAACUAGGAGCACCAUUUCGCUGCCAGUGAAGAAAUUAACAAAGAAAAUCUGGGCCAGGCAGGCAUCAAAAGAAAUAGUCUUGCGCACAACCAGAAAGUCUGUAAUCAUUUUAAGGGUA, the self-cleavage was 0.02.

Regarding GUUAACGGUCACAGGCCAUGGAAACUAGGAGCACCAUCUCGCUGCCAGUGAAGAGAUGAACAAAGAAAAUCUGGGCCAGGCACGCAUCAAAAGAAAUAGUCUUGCGCUCAACCAGAAAGUCUGUAAUCAUUUUAAGGGUA, the self-cleavage came out at 0.25.

With GUUAACGGUCACAGGCCAUGGAAACUAGGAGCACCAUUUCGCGGCCAGUGAAGAAAUGAACAAAGAAAAUCUGGGCCAGGCAGGCAUCAAAAGAAAUAGUCUUGCGCGCAACCAGAAAGUCUGUAAUCAUUUUAAGGGUA, the self-cleavage came to 0.07.

Consider GUUAACGGUCACAGGCCACGGAAACUAGGAGCACCAUUUCGCUACCAGUGAAGAAAUGAACAAAGAAAAUCUGGGCCAGGCAGGCAUCAAAAGAAAUAGUCUUGCGCCCAACAAGAAAGUCUGUAAUCAUUUUAAGGGUA, for which the self-cleavage was 0.01.

For GUUAACGGUCACAGGCCAUGGAAACUAGGAGCACCAAUUCGCUGCCAGUGAAGAAGUGAACGAAGAAAAUCUGGGCCAGGCAGGCAUCAAAAGAAAUAGUCUUGCGCUCAACCAGAAAGUCUGUAAUCAUUUUAAGGGUA, the self-cleavage is 0.61.

For the variant GUUAACGGUCACAGGCCAUGGAAACUAGGAGCACCAUUUCGCUGCCAGCGAAGAAAUGAACAAAGAAAAUCCGGGCCAGGCAGGCAUCAAAGGAAAUAGUCUUGCGCUCAACCAGAAAGUCUGUGAUCAUUUUAAGGGUA, the self-cleavage was determined as 0.01.

On to GUUAACGGUCACAGGCCAUGGAAACUAGGAGCACCAUUUCGCCGCCAGUGAAGAAAUGAACAAAGUAAAUCCGGGCCAGGCAGGCAUCAAAAGUAAUAGUCUUGCGCUCAACCAGUAAGUCUGUAAUCAUUUUAAGGGUA, for which the self-cleavage was 0.01.

As to GUUAACGGUCACAGGCCAUGGAAACUAGGAGCACCAUUUCGCCGCCAGUGAAGAAAUGAACAAAGAAAAUCUGGGCCAGGCAGGCAUCAAAGGAAAUAGUCUUGCGCUCAACCAGAAAGUCUGUAAUCAUUUUAAGGGUA, the self-cleavage came to 0.98.

Take GUUAACGGUCACAGGCCAUGGAAACCAGGAGCACCAUUUCGCUGCCAGUGAAGAAAUGAACAAAGAAAAUCUGGGCCAGGCAGGCAUCAAAGGAAAUAGUCUUGCGCUCAACCAGAAAGUCCGUAAUCAUUUUAAGGGAA: the self-cleavage came out at 0.8.
